Tested on: HSV-1
Experiment: HSV-1 plaque reduction on Vero cells after incubation with TFO and ultraviolet-A radiation
Settings: Example 9, 1 μM, two TFOs together, UVA 40 minutes
Description: Viral titers were determined by plaque counts on Vero cell monolayers.
3000 PFU/ml of HSV-1 were incubated with 1 μM TFO-3 (SEQ ID 2) at room temperature, N=5 replications per group. Viral killing (as measured by plaque-reduction) was effected by exposing the mixture to ultraviolet-A radiation for 0, 20 and 40 minutes at room temperature. HSV-1 titers were determined by plaque assay on Vero cells. The results were confirmed by a masked observer. The results were calculated as a percent of the unirradiated (0 min.) “virus only” control titers±SEM. Statistical comparisons were made between the “virus only” and “virus+TFO-3 (SEQ ID 2)” groups at each time point using an unpaired two-tailed Student's T-Test.
3000 PFU/ml of HSV-1 was incubated with 1 μM TFO-3 (SEQ ID 2) or a (scrambled) control oligonucleotide. Viral killing was affected by exposing the mixture to ultraviolet-A radiation for 40 min. Results are expressed as percent of the “virus only” control titers±SEM. […]
HSV-1 was incubated with 1 μM TFO-3 (SEQ ID 2) with and without exposure to ultraviolet-A radiation for 40 minutes at room temperature. Results are expressed as mean viral titers±standard errors. […]
HSV-1 was incubated with 1 μM of TFO-1 (SEQ ID 1) and TFO-3 (SEQ ID 2) or their scrambled control oligonucleotides. […] Results are expressed as mean viral titers ±standard error of the mean. […]

## TFO-1 (SEQ ID 1) and TFO-3 (SEQ ID 2): the two anti-HSV-1 TFOs used together (chain 1 GAAGAGGGGGGGGGGAAGAAG; chain 2 GGGAGGAGGGAGGGAAGGAGGGGG; DNA, backbone not given here)
  decrease in viral titers over matching controls: 10 fold

Reference: patent US7407752B2, “Oligonucleotide complexes for use as anti-viral therapeutics” (priority 2003, dated 2008)
